Experimental data: PubChem BioAssay AID1476 (National Center for Advancing Translational Sciences (NCATS), 2009)
Where “and” joins values, the source holds several entries; their conditions need not be identical. Identical values can stand only once. About 4,500 (2.2%) of roughly 200,000 compounds were called active. The inconclusive results got no clear call from the source; some entries with a clear call stand among them for comparison. Calls follow the shape of the dose curve; as a rule, active = well fitted inhibition curve with a large enough effect; inconclusive = small, poorly fitted or top-dose-only effect, or effect the other way; inactive = flat fitted curve, though single readings scatter. A potency beside an inconclusive call is a rough fit, not a confirmed value.

Molecular target: Cruzipain (Trypanosoma cruzi) (UniProt P25779)
Chain of UniProt P25779 (P25779 whole entry, looked up): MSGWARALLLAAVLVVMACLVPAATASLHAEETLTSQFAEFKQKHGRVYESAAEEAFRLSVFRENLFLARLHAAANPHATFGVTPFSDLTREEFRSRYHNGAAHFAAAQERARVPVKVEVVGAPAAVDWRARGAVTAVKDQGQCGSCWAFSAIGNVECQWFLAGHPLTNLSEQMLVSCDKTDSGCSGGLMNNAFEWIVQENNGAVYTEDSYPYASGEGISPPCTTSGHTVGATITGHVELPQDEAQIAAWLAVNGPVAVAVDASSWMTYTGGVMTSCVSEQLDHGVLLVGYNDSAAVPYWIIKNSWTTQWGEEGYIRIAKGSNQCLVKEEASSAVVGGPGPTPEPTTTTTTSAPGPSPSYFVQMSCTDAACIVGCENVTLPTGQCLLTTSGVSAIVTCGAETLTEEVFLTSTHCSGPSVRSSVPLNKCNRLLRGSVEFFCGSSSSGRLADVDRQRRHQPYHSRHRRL
Test: qHTS Assay for Promiscuous and Specific Inhibitors of Cruzain (without detergent); also: nearly all actives have a fitted effect of over 40% in size;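 as to max response, negative = inhibition: plate controls were enzyme without inhibitor for no effect and buffer without enzyme for full effect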
Conditions: purified cruzain, Z-FR-AMC fluorescence, no detergent
How it was run: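 Purified cruzain at 1.5 nM, pre-incubated 15 min with compound at room temperature in 100 mM sodium acetate pH 5.5, 5 mM DTT, 0.00005% Triton X-100. Reaction started with 2 uM Z-FR-AMC; AMC fluorescence increase over 60 s gives rate.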
Potency is read from the fitted curve at half-maximal effect; tags tell the direction and shape of the fitted curve.

SMILES	max response, negative = inhibition	Potency
Cc1ccc(-c2ccc(=O)n(CC(=O)NCCc3ccccc3)n2)cc1	inactive: 1.03%	–
CCC(=O)N1CCN(c2ccc(NC(=S)NC(=O)c3cccc([N+](=O)[O-])c3)cc2)CC1	–	inconclusive: 39.8 µM [activator, single point]
COC(=O)c1cc(Cl)c(NC(=O)c2ccc(C(C)(C)C)cc2)cc1OC	–	inconclusive: 39.8 µM [activator, single point]
Cc1nn(Cc2ccc(Cl)cc2Cl)c(C)c1NC(=O)c1ccc(COc2cc(Cl)ccc2Cl)o1	–	inconclusive: 31.6 µM [inhibitor, single point]
CC(=O)N1CCCc2cc(S(=O)(=O)N3CCCC(C(=O)N4CCN(c5ccccc5)CC4)C3)ccc21 (stereo not drawn)	–	inconclusive: 31.6 µM [activator, single point]
Cc1ccc2nc3c(cc(C(=O)NCc4cccnc4)c(=N)n3C(C)C)c(=O)n2c1	–	inconclusive: 25.1 µM [inhibitor, single point]
COc1cc(OC)c(C2C3=C(CCCC3=O)Nc3nc4ccccc4n32)cc1OC (stereo not drawn)	–	inconclusive: 39.8 µM [activator, single point]
Cc1ccc2c(CNCc3ccc(C)o3)c(C(=O)O)n(Cc3ccccc3C)c2c1	–	inconclusive: 39.8 µM [activator, single point]
N#C/C(=C(/O)COC(=O)CSc1ccc2ccccc2c1)c1nc2ccccc2[nH]1	–	inconclusive: 39.8 µM [inhibitor, single point]
CSc1nnc(C)c(/C=C/Nc2ccc(F)cc2)n1	–	inconclusive: 39.8 µM [activator, single point]
COc1ccc(CCn2c(-c3cc([N+](=O)[O-])cc([N+](=O)[O-])c3)nc3nc4ccccc4nc32)cc1	–	inconclusive: 6.31 µM [activator, single point]
CCc1ccc2occ(CC(=O)Nc3c(C(=O)c4ccc(C)cc4)oc4ccccc34)c2c1	inactive: -21.8%	–
Cn1c(C(=O)Nc2ccccc2)cc2sccc21	–	inconclusive: 25.1 µM [inhibitor, single point]
COc1ccc(-c2nc(CSCC(=O)N3CCC4(CC3)OCCO4)c(C)o2)cc1OC	–	inconclusive: 39.8 µM [activator, single point]
CCOC(=O)c1ccc(CN(Cc2ccc(F)cc2)S(=O)(=O)c2ccc(F)c(C(=O)Nc3c(C)cccc3C)c2)cc1	–	inconclusive: 31.6 µM [inhibitor, single point]
Cc1ccc(C(C(=O)NCc2ccco2)N(C(=O)CNC(=O)c2cccs2)c2c(C)cc(C)cc2C)cc1 (stereo not drawn)	–	inconclusive: 31.6 µM [inhibitor, single point]
COc1ccccc1[C@@H]1C(c2cccc(Cl)c2)=NN(c2ccc(Br)cc2)[C@H]1C(=O)N1CCOC1=O	–	active: 12.6 µM and active: 8.91 µM
COc1ccc(C(=O)CSc2nnc(CCc3ccccc3)n2-c2ccccc2)cc1	–	inconclusive: 39.8 µM [activator, single point]
CC(=O)N[C@@H]1CONC1=O	inactive: 3.69%	–
Cc1nn(C)cc1CN(C)C(=O)c1cc(-c2ccccc2)nc2ccc(Br)cc12	–	inconclusive: 39.8 µM [activator, single point]
CCOC(=O)c1c(C)oc2nc(C)nc(NCC3CCN(Cc4ccc(C)cc4)CC3)c12	inactive: -4.06%	–

SMILES	max response, negative = inhibition	Potency
N#Cc1c(C(F)(F)F)cc(-c2cccs2)nc1SCc1ccc(F)cc1	inactive: 7.66%	–
C[C@H](CCC(=O)NN)[C@@H]1CC[C@@H]2[C@H]3CC[C@H]4C[C@@H](O)CC[C@@]4(C)[C@@H]3CC[C@]21C	–	inconclusive: 3.16 µM [inhibitor, single point]
CC1Cc2ccccc2N1C(=O)CSc1nc2ccc(NC(=O)COc3ccccc3)cc2s1 (stereo not drawn)	inactive: 7.33%	–
COc1cc(C(=O)Nc2nc(-c3ccc(Cl)cc3)c(C)s2)ccc1OCC(=O)Nc1ccc(F)cc1	–	active: 15.8 µM
CCCCNC(=O)c1ccc2c(=O)n(Cc3ccc(OC)cc3)c(=O)[nH]c2c1	inactive: 2.71%	–
CC(C)COc1nc2ccccc2nc1C(C#N)C(=O)NC1CCCCC1 (stereo not drawn)	–	inconclusive: 1 µM [inhibitor, full curve]
COC(=O)c1cc2oc(C)cc2n1CC(=O)Nc1ccc(C(C)C)cc1	inactive: -22%	–
COc1ccccc1N1CCN(C(=O)CCCN2C(=O)c3cccc4cccc(c34)C2=O)CC1	–	inconclusive: 39.8 µM [activator, single point]
COc1ccc(-c2nnc(SCC(=O)NCCC(C)C)nc2-c2ccc(OC)c(OC)c2)cc1OC	–	inconclusive: 31.6 µM [activator, single point]
Cc1cc(C)c2c(N)c(C(=O)Nc3nccs3)sc2n1	–	inconclusive: 31.6 µM [activator, single point]
Cc1oc(-c2ccccc2Cl)nc1CS(=O)(=O)CC(=O)NCc1ccc(F)cc1	–	inconclusive: 39.8 µM [activator, single point]
CCOC(=O)c1c(C2COc3ccccc3O2)csc1NC(=O)c1ccco1 (stereo not drawn)	–	inconclusive: 20 µM [inhibitor, partial curve, poor fit]
CCCCn1c(=O)n(-c2cc(OC)ccc2OC)c(=O)c2c3c(sc21)CN(C(C)=O)CC3	–	inconclusive: 39.8 µM [activator, single point]
Cc1ccc(CN2C(=O)c3ccccc3Sc3ccc(C(=O)N4CCC5(CC4)OCCO5)cc32)cc1	–	inconclusive: 31.6 µM [activator, single point]
CCOC(=O)c1noc2ncn(CC(=O)Nc3cccc(C(F)(F)F)c3)c(=O)c12	inactive: 1.63%	–
CCOC(=O)C1=C(CS(=O)(=O)c2ccc(F)c(C)c2)NC(=O)NC1c1ccccc1OC (stereo not drawn)	inactive: 7.08%	–
COc1ccc(C(NC(=O)/C=C/c2ccco2)c2ccc(OC)c(OC)c2)cc1OC	–	inconclusive: 31.6 µM [activator, single point]
CCOc1ccccc1NC(=O)CN(C)S(=O)(=O)c1ccc(C(=O)N2CCOCC2)s1	–	inconclusive: 31.6 µM [activator, single point]
COc1ccc(CC(=O)Nc2nc(-c3cccc([N+](=O)[O-])c3)cs2)cc1	–	active: 20 µM
CCC1CCCCN1S(=O)(=O)c1ccc(S(=O)(=O)N(Cc2ccccn2)CC2CCCO2)cc1 (stereo not drawn)	–	inconclusive: 39.8 µM [activator, single point]
Cc1nc2cnc(N3CCN(C)CC3)nc2n(C[C@H]2CCCO2)c1=O	–	inconclusive: 31.6 µM [inhibitor, single point]

SMILES	max response, negative = inhibition	Potency
COC(=O)c1cccc(S(=O)(=O)N(Cc2ccco2)Cc2cc3cc(OC)ccc3[nH]c2=O)c1	–	inconclusive: 39.8 µM [activator, single point]
O=C(Cn1c2ccccc2c(=O)c2ccccc21)N/N=C/c1cc([N+](=O)[O-])ccc1N1CCCCCC1	–	active: 6.31 µM
Cc1cc(Cl)ccc1NC(=O)Cc1ccc(NC(=O)N2CCCCc3ccccc32)cc1	inactive: 8.39%	–
O=C(NCc1ccco1)c1ccc2c(c1)N(Cc1ccc(Cl)cc1)C(=O)c1ccccc1S2	–	inconclusive: 39.8 µM [inhibitor, single point]
O=c1c2cccnc2[nH]c(=S)n1CCC1=CCCCC1	–	inconclusive: 31.6 µM [inhibitor, single point]
O=C(Nc1ccc(F)cc1)Nc1cc(OCC(F)(F)F)cc(OCC(F)(F)F)c1	inactive: -3.07%	–
O=C(NCc1nc2ncc(Br)cc2[nH]1)c1ccccc1	inactive: -10.8%	–
COc1cccc(NC(=O)/C(C#N)=C/c2c(C)n(Cc3ccc(Cl)cc3)c3ccccc23)c1	–	active: 6.31 µM
Cc1ccc(C(C)C)c(OCCSc2nc3ccccc3n2CC(O)CO)c1 (stereo not drawn)	–	inconclusive: 39.8 µM [activator, single point]
CN(C)S(=O)(=O)c1cccc(NC(=S)N/N=C/C(c2ccccc2)c2ccccc2)c1	–	active: 31.6 µM
COc1ccccc1Cc1nc2ccccc2nc1SCC(=O)N1CCN(c2ccccc2)CC1	inactive: -6.21%	–
Cc1sc2ncnc(SCC(=O)NNC(=O)COc3cccc4ccccc34)c2c1C	–	inconclusive: 39.8 µM [inhibitor, single point]
Cc1cc(C)c2cc(CN(Cc3nnnn3C3CCCCC3)CC3CCCO3)c(=O)[nH]c2c1 (stereo not drawn)	–	inconclusive: 25.1 µM [activator, single point]
COc1ccc(CCNC(=O)C(C)n2c(=O)cc(C(F)(F)F)c3c(C)nn(C)c32)cc1OC (stereo not drawn)	–	inconclusive: 31.6 µM [activator, single point]
CCc1ccc(C(=O)c2cn(Cc3ccc(F)cc3)c3cc(OC)c(OC)cc3c2=O)cc1	–	inconclusive: 39.8 µM [activator, single point]
CN(C)CCNc1oc(-c2ccc(COc3ccc(Cl)cc3)o2)nc1C#N	inactive: 2.98%	–
Cc1nc2ccn(Cc3cccnc3)c(=O)c2cc1C(=O)N1CCN(c2ccc(F)cc2)CC1	inactive: 5.24%	–
CCOC(=O)Cc1csc(NC(=O)CSc2ncnc3c2cnn3-c2ccccc2Cl)n1	inactive: 3.64%	–
CN1CCN(S(=O)(=O)c2ccc3ccccc3c2)CC1	–	inconclusive: 0.126 µM [inhibitor, single point]
CCOC(=O)c1c(N2C(=O)C3C4C=CC(O4)C3C2=O)sc2c1CCCC2 (stereo not drawn)	inactive: 19.3%	–
Cc1ccc(N2C(=O)C(NC(=O)c3c(F)cccc3F)(C(F)(F)F)C3=C2CC(C)(C)CC3=O)cc1 (stereo not drawn)	–	inconclusive: 39.8 µM [activator, single point]
